In PubChem BioAssay AID493208 (National Center for Advancing Translational Sciences (NCATS), 2011):
About 340 (0.77%) of roughly 44,000 compounds were called active. Inconclusive results (about 5%) are left out. Calls follow the shape of the dose curve; as a rule, active = well fitted inhibition curve with a large enough effect; inconclusive = small, poorly fitted or top-dose-only effect; inactive = flat fitted curve, though single readings scatter. The list shows a part of the results.

assay: Acumen qHTS Assay for Inhibitors of the mTORC1 Signaling Pathway in MEF (Tsc2-/-, p53-/-) Cells: Sytravon; conditions: phospho-rpS6 immunofluorescence/PI, 24 h; series mostly up to 38.3 µM; activity change, negative = inhibition: at the top concentration;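 also: plate controls were DMSO for no effect and rapamycin for full effect; nearly all actives have a fitted effect of over 50% in size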
Procedure, shortened: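 Compounds act on Tsc2-/-, p53-/- fibroblasts carrying an empty vector for 24 h before fixation and dual staining for phospho-S6 and DNA (propidium iodide). Values are percentages of cells above a rapamycin-defined pS6/PI threshold.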

Activity change, negative = inhibition, inactive:
Cc1nnc(NC(=O)CSCc2cc(=O)c3cc(Cl)ccc3[nH]2)s1 9.48%
O=S(=O)(NCc1ccc(F)cc1)c1ccc(-c2cnc(C3CC3)o2)cc1 2.64%
Cc1ccc(C(=O)c2cn(CC(=O)NC3CCCCC3)c3nc(C)ccc3c2=O)cc1 -5.23%
Cc1c(C(=O)N2CCCC2)oc2c1-c1nn(CC(=O)NCCCOC(C)C)cc1CC2 0.556%
COc1cccc(C(=O)Nc2ccccc2C(=O)OCc2cc(=O)n3nc(C4CC4)sc3n2)c1 4.92%
O=C(NC1CC(=O)N(c2cccc(F)c2)C1)C1CCCC1 (configuration not stated) -0.258%
Cc1c(C)c2c(cc(C)c3c(-c4ccccc4)coc32)oc1=O -2.61%
COc1ccccc1-n1ncc2c(=O)[nH]c(SCC(=O)Nc3ccc(Cl)cc3)nc21 -6.98%
Cc1ccc(CNC(=O)c2cccn2-c2nnc(N3CCCCC3)s2)cc1 0%
COc1cc(-c2nc(Cn3nnc(C(=O)Nc4ccccc4)c3C)c(C)o2)cc(OC)c1OC -26.4%
O=C(Nc1cc2c(cc1C(=O)c1ccccc1)OCCO2)c1ccc(Br)cc1 -20.2%
O=C(c1cccn1-c1nnc(N2CCCC2)s1)N1CCN(c2ccccc2)CC1 2.81%
CN(C)CCN(Cc1ccccc1)S(=O)(=O)c1ccc2[nH]c(=O)ccc2c1 -1.51%
Cc1ccccc1-c1nc(SCC(=O)NCc2ccco2)c2c(=O)n(C)c(=O)n(C)c2n1 0.932%
COc1ccc2oc(=O)c(-c3csc(-c4ccc(Br)cc4)n3)cc2c1 1.12%
COc1cccc(-n2cc(C(=O)NCCc3ccc(C)cc3)c3ccccc3c2=O)c1 10.2%
O=C(/C=C\c1ccc2c(c1)OCO2)NC1CC(=O)N(c2ccc(Cl)cc2)C1 (configuration not stated) 3.12%
Cc1ccc(NC(=O)C2CCN(S(=O)(=O)c3c(C)noc3C)CC2)c(C)c1 -8.84%
COc1ccc(-c2csc3nc(-c4ccccc4C)oc(=O)c23)cc1OC -1.32%
CC(=O)N1CCOc2cc(S(=O)(=O)NCc3ccc(C)cc3)c(Cl)cc21 -0.133%
CCOc1ccccc1NC(=O)c1cc(=O)c2ccc(C)cc2o1 -1.78%
COc1ccc(NC(=O)CSc2oc(-c3cccs3)nc2S(=O)(=O)c2ccc(C)cc2)c(OC)c1 3.11%
CCSc1nc(-c2ccccc2OC)nc2c1Cc1c(CO)cnc(C)c1O2 -0.283%
CCOC(=O)c1c(C)oc2ncnc(N3CCN(c4ccccc4F)CC3)c12 -3.93%
O=C(Cc1cccs1)NC1CC(=O)N(c2cccc(F)c2)C1 (configuration not stated) 3.73%
Cn1c(=O)n(C)c2cc(NS(=O)(=O)c3ccc(F)cc3)ccc21 -0.709%
COc1cccc(C(=O)Nc2ccc3nc(SCC(=O)N4CCOCC4)sc3c2)c1 0%
Cc1cc(C)n2c(Nc3ccc(Cl)cc3)c(-c3ccsc3)nc2n1 -8.21%
COc1cc2nc(NCCC(C)C)n3nc(-c4ccccc4)nc3c2cc1OC -8.08%
Cc1ccc2c(CN3CCN(C(=O)c4ccc(F)cc4)CC3)cc(=O)oc2c1 1.7%
Cc1ccc(OCC(=O)N(c2ccc(C)cc2)S(=O)(=O)c2ccc(Cl)cc2)cc1 -2.85%
CCOc1ccccc1NC(=O)CSc1nc(=O)[nH]c2c1CCCC2 -3.78%
O=C(CS(=O)(=O)c1cccc2nsnc12)Nc1ccccc1 -1.2%
COc1ccccc1CNC(=O)CN1C(=O)COc2ccc(S(=O)(=O)Nc3ccccc3)cc21 -11.6%
CSCCC(NS(=O)(=O)c1ccc2c(c1)oc(=O)n2C)C(=O)N1CCN(c2cc(C)ccc2C)CC1 (configuration not stated) -6.42%
COc1ccc(C2CC(=O)NC(NC(=O)c3ccc(Br)cc3)=N2)c(OC)c1OC (configuration not stated) -8.06%
CC(C)(C)c1ccc(C(=O)NCCc2csc3nc(-c4ccccc4F)nn23)cc1 -2.7%
O=C(Nc1cc(-c2nc3ccccc3s2)ccc1Cl)c1cc2ccccc2o1 1.89%
CN(Cc1ccccc1)C(=O)c1ccc2c(c1)N(Cc1ccccc1F)C(=O)c1ccccc1S2(=O)=O 5.71%
O=S(=O)(Nc1ccccc1C(F)(F)F)c1ccc(N2CCCCS2(=O)=O)cc1 15.7%
CCCOc1cccc(NC(=O)c2c(-c3ccccc3Cl)noc2C)c1 5.3%
CN(C(=O)CSc1nc2ccc(NC(=O)COc3ccc(Cl)cc3)cc2s1)c1ccccc1 -27.2%
Cc1cccc(C)c1NC(=O)Cn1c(=O)n(Cc2ccccc2)c(=O)c2c(C)c(C(=O)N(C)C)sc21 0.177%
COc1ccc(Cl)cc1NS(=O)(=O)c1ccc2[nH]c3c(c2c1)CCCC3 -18.3%
Cc1ccc(-c2nc3sc(CCNS(=O)(=O)c4cc(F)ccc4F)c(C)n3n2)cc1 -3.87%
Cc1ccc(Cl)cc1-n1c(=O)cc(N2CCN(c3ccc(F)cc3)CC2)[nH]c1=O -2.17%
Cc1cc(C)c2oc(C(=O)Nc3ccc(S(=O)(=O)N4CCCCC4)cc3)cc(=O)c2c1 0.0842%
CC(=O)N(Cc1cccnc1)c1nc2c(F)cc(F)cc2s1 1.07%
Cn1c(=O)c2c(-c3ccc(Cl)cc3)n(Cc3ccccc3)cc2n(C)c1=O -2.89%
O=C(O)Cn1nnc(-c2ccc(OCc3cccc(C(F)(F)F)c3)cc2)n1 -3.8%
CCOC(=O)c1cc(S(=O)(=O)Nc2ccc(C)cc2Cl)[nH]n1 -20.9%
COc1cccc(NC(=O)C2CCC(CNS(=O)(=O)c3ccc4c(c3)CC(C)N4C(C)=O)CC2)c1 (configuration not stated) -10.3%
COc1ccc(CNC(=O)CSc2nc3ccccc3nc2Cc2ccccc2)cc1 -0.0409%
CCOC(=O)c1[nH]c(C)c(CCC(=O)NCc2ccc(N(C)C)cc2)c1C 0%
COc1ccc(Cn2c(CCC(=O)NCc3cccc(Cl)c3)nc3cccnc32)cc1 -6.71%
COc1ccc(S(=O)(=O)NCCc2cc3ccc(C)c(C)c3[nH]c2=O)cc1 -2.5%
COc1cccc(/C=C/c2nc(C#N)c(NCCN(C)C)o2)c1 -4.28%
COC(=O)c1ccc(NC(=O)CCc2c(C)nn(-c3ccc(N4CCCC4)nn3)c2C)cc1 0.0639%
CCOC(=O)c1cnn(-c2ccc(OC)cc2)c1C1CCN(C(=O)OC(C)(C)C)CC1 -4.7%
Cc1cccc(-c2nc(SCc3ccc(Br)cc3)n3[nH]c(=O)cc3n2)c1 -9.14%
COc1ccccc1N1CCN(C(=O)CCc2c(C)nn(-c3ccc(N4CCCC4)nn3)c2C)CC1 0%
Cn1nc(C(=O)Nc2cc(F)ccc2F)c2c1-c1ccccc1SC2 1.73%
